From article PMC2376215 (The Journal of Biological Chemistry, 2008)

B1: full-length rat wild-type p97 (enzyme)
chain: not shown
B2: p97 K251A (D1 Walker A mutant) (enzyme)
chain: not shown
B3: p97 K524A (D2 Walker A mutant) (enzyme)
chain: not shown
B4: p97 K251A,K524A (D1 and D2 Walker A mutant) (enzyme)
chain: not shown
B5: p97 R359A,R635A (SRH arginine finger mutant) (enzyme)
chain: not shown

Target: the molecule itself
Assay: native gel or EMSA
B1: binds.
B2: binds.
B3: binds.
B4: binds.
B5: binds.
